From the BET-seq Pho4 binding data (Le et al. 2018)
This is one part of the list. Values were computed here from the reads of four pooled replicates and scatter widely.

The sequences below were run against T1, Pho4 (S. cerevisiae) (UniProt P07270) (assay: relative binding free energy (BET-seq); higher = weaker binding). Conditions: reference: library average.
T1 sequence: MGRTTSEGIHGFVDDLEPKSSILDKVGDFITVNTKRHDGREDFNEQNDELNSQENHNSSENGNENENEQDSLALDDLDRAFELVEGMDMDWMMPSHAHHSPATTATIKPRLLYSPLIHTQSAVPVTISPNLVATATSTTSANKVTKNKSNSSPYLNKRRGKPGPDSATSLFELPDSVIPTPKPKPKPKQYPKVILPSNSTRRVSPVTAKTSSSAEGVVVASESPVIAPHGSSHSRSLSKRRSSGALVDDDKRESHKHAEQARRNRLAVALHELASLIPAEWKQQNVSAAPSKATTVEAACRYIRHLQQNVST
For TGGAACACGTGATTGT, the “relative binding free energy” value was 0.15 kcal/mol. TTGGGCACGTGAGTAC was tested, and the “relative binding free energy” value was 0.02 kcal/mol. In the case of GGGAGCACGTGTTACG, the “relative binding free energy” value was 0.03 kcal/mol. ACTTGCACGTGATATG was tested, and the “relative binding free energy” value was 0.14 kcal/mol. In the case of TTTGACACGTGGTGGC, the “relative binding free energy” value was -0.06 kcal/mol. TGATACACGTGTTGCG was tested, and the “relative binding free energy” value was 0.03 kcal/mol. GTCTGCACGTGTTTGT was tested, and the “relative binding free energy” value was -0.03 kcal/mol. In the case of GGCAACACGTGGGGTT, the “relative binding free energy” value was -0.1 kcal/mol. AGAGGCACGTGTGCAG was tested, and the “relative binding free energy” value was -0.09 kcal/mol. In the case of ATGGGCACGTGTGGTC, the “relative binding free energy” value was -0.13 kcal/mol. For ATTCGCACGTGGGGGA, the “relative binding free energy” value was -0.06 kcal/mol. GAGGACACGTGTAGGG was tested, and the “relative binding free energy” value was 0.12 kcal/mol. With GGGTTCACGTGGGTCA the “relative binding free energy” value was 0.19 kcal/mol. With AGGGACACGTGGAATG the “relative binding free energy” value was -0.04 kcal/mol. For CGCGTCACGTGGGGAG, the “relative binding free energy” value was -0.08 kcal/mol. With GACATCACGTGTAGGG the “relative binding free energy” value was 0.11 kcal/mol. GTCGACACGTGGGTCG was tested, and the “relative binding free energy” value was -0.11 kcal/mol. In the case of TATGTCACGTGATATC, the “relative binding free energy” value was 0.23 kcal/mol. In the case of TCTGACACGTGAATGG, the “relative binding free energy” value was 0.38 kcal/mol. TTATGCACGTGGCAAG was tested, and the “relative binding free energy” value was -0.11 kcal/mol. In the case of ATTGGCACGTGGTTCT, the “relative binding free energy” value was -0.31 kcal/mol. With GTTGTCACGTGGGTGG the “relative binding free energy” value was 0.09 kcal/mol. With AATTACACGTGTATTT the “relative binding free energy” value was -0.02 kcal/mol. In the case of GTTGTCACGTGAATAG, the “relative binding free energy” value was 0.33 kcal/mol. With GATATCACGTGATGGT the “relative binding free energy” value was 0.31 kcal/mol. For ACGGCCACGTGGTGTG, the “relative binding free energy” value was -0.12 kcal/mol. For TAATTCACGTGTCCGG, the “relative binding free energy” value was 0.48 kcal/mol. For AGGGCCACGTGAGCGG, the “relative binding free energy” value was 0.13 kcal/mol. In the case of TCGTGCACGTGCGTGC, the “relative binding free energy” value was 0.03 kcal/mol. With TGGGACACGTGTAGTG the “relative binding free energy” value was 0.2 kcal/mol. With TATTGCACGTGGTCAA the “relative binding free energy” value was -0.13 kcal/mol. For CGGTGCACGTGTTGTA, the “relative binding free energy” value was -0.16 kcal/mol. AGCGGCACGTGTCTTG was tested, and the “relative binding free energy” value was 0.02 kcal/mol. For GAGGGCACGTGAGGAG, the “relative binding free energy” value was 0.08 kcal/mol. With CCGGGCACGTGGTATG the “relative binding free energy” value was -0.11 kcal/mol. With TGATGCACGTGGTATC the “relative binding free energy” value was -0.1 kcal/mol. TGATACACGTGAATGG was tested, and the “relative binding free energy” value was 0.34 kcal/mol. TGCCACACGTGGGTTG was tested, and the “relative binding free energy” value was -0.05 kcal/mol. With GGTTTCACGTGAAGCG the “relative binding free energy” value was 0.31 kcal/mol. For GAGTGCACGTGTGGTT, the “relative binding free energy” value was 0.07 kcal/mol. TACAGCACGTGTGTTT was tested, and the “relative binding free energy” value was -0.16 kcal/mol. In the case of CATTTCACGTGGGGGG, the “relative binding free energy” value was 0.22 kcal/mol. With ACGGACACGTGATGTG the “relative binding free energy” value was 0.13 kcal/mol. GTTACCACGTGTGGAT was tested, and the “relative binding free energy” value was 0.25 kcal/mol. In the case of GTGTGCACGTGTAGCA, the “relative binding free energy” value was -0.02 kcal/mol. In the case of ATATGCACGTGTTACG, the “relative binding free energy” value was -0.03 kcal/mol. For AAGCGCACGTGTTGTT, the “relative binding free energy” value was -0.1 kcal/mol. For TTGGCCACGTGGTTGA, the “relative binding free energy” value was -0.09 kcal/mol. In the case of TGGCTCACGTGTAAAT, the “relative binding free energy” value was 0.37 kcal/mol. ACTTTCACGTGGTGGA was tested, and the “relative binding free energy” value was 0.16 kcal/mol. In the case of TCAGTCACGTGATTGT, the “relative binding free energy” value was 0.21 kcal/mol. For CTTATCACGTGCGGTT, the “relative binding free energy” value was 0.09 kcal/mol. With TGAGCCACGTGAGGTT the “relative binding free energy” value was 0.18 kcal/mol. TTGTGCACGTGGAGGG was tested, and the “relative binding free energy” value was 0.05 kcal/mol. In the case of GATAGCACGTGGAGGG, the “relative binding free energy” value was -0.02 kcal/mol. In the case of ATTTACACGTGTGCAA, the “relative binding free energy” value was 0.36 kcal/mol. TGGTACACGTGATGTT was tested, and the “relative binding free energy” value was 0.22 kcal/mol. TTGTGCACGTGCGACG was tested, and the “relative binding free energy” value was 0.05 kcal/mol. In the case of TTGGACACGTGGCGTA, the “relative binding free energy” value was 0.01 kcal/mol. For GATTGCACGTGCGGTA, the “relative binding free energy” value was 0.04 kcal/mol. In the case of ATTTGCACGTGGTAAT, the “relative binding free energy” value was -0.07 kcal/mol. In the case of AGGGTCACGTGTTTTT, the “relative binding free energy” value was 0.16 kcal/mol. For CGTCTCACGTGAGGGG, the “relative binding free energy” value was 0.27 kcal/mol. In the case of GGTAACACGTGAAGAG, the “relative binding free energy” value was 0.25 kcal/mol. In the case of GGTGTCACGTGGGGCC, the “relative binding free energy” value was -0.04 kcal/mol. For TGGTCCACGTGGTTGC, the “relative binding free energy” value was -0.12 kcal/mol. With TGTTGCACGTGTGCGT the “relative binding free energy” value was -0.08 kcal/mol. TAGTGCACGTGTGGTA was tested, and the “relative binding free energy” value was -0.05 kcal/mol. In the case of ACTTGCACGTGAGGTT, the “relative binding free energy” value was 0.26 kcal/mol. For TCTGGCACGTGGGGCT, the “relative binding free energy” value was -0.32 kcal/mol. With GTGAACACGTGGGGCG the “relative binding free energy” value was -0.06 kcal/mol. With GAGAGCACGTGTAGTT the “relative binding free energy” value was -0.1 kcal/mol. With GCGAGCACGTGGTTTT the “relative binding free energy” value was -0.07 kcal/mol. With ATGGGCACGTGCGTGT the “relative binding free energy” value was -0.15 kcal/mol. With GGGGGCACGTGTCCGT the “relative binding free energy” value was -0.24 kcal/mol. CGTCGCACGTGGCGGG was tested, and the “relative binding free energy” value was -0.38 kcal/mol. In the case of ATGTTCACGTGAAGGA, the “relative binding free energy” value was 0.48 kcal/mol. In the case of TAGAGCACGTGAGAGT, the “relative binding free energy” value was 0.18 kcal/mol. For GGGGTCACGTGGCATT, the “relative binding free energy” value was 0.1 kcal/mol. In the case of GGGGGCACGTGCAGAA, the “relative binding free energy” value was -0.17 kcal/mol. In the case of GTGGACACGTGTAGTT, the “relative binding free energy” value was 0.14 kcal/mol. In the case of AATGCCACGTGGTGAG, the “relative binding free energy” value was -0.17 kcal/mol. For TTCTACACGTGATAGG, the “relative binding free energy” value was 0.24 kcal/mol. TTTAACACGTGGGTAC was tested, and the “relative binding free energy” value was -0.06 kcal/mol. GGTGCCACGTGTTAGG was tested, and the “relative binding free energy” value was 0.03 kcal/mol. In the case of TGGTTCACGTGGGACC, the “relative binding free energy” value was 0.14 kcal/mol. With TTGTTCACGTGAATTC the “relative binding free energy” value was 0.34 kcal/mol. TAGGTCACGTGTGTTG was tested, and the “relative binding free energy” value was 0.16 kcal/mol. AAAGACACGTGTAGTT was tested, and the “relative binding free energy” value was 0.08 kcal/mol. For TGGAGCACGTGTGTAG, the “relative binding free energy” value was -0.04 kcal/mol. CGTGTCACGTGTGTTG was tested, and the “relative binding free energy” value was 0.06 kcal/mol. TGAGTCACGTGTATAT was tested, and the “relative binding free energy” value was 0.12 kcal/mol. CGGGACACGTGGTTTG was tested, and the “relative binding free energy” value was -0.09 kcal/mol. TATGTCACGTGCGTCG was tested, and the “relative binding free energy” value was -0.04 kcal/mol. In the case of AGGAGCACGTGGGTGT, the “relative binding free energy” value was -0.27 kcal/mol. With TGGAACACGTGGTTGG the “relative binding free energy” value was -0.04 kcal/mol. With AGGTACACGTGTAGAG the “relative binding free energy” value was 0.24 kcal/mol. With GGGTTCACGTGCTTTA the “relative binding free energy” value was 0.21 kcal/mol. For AGTCGCACGTGGGTCT, the “relative binding free energy” value was -0.17 kcal/mol. With CTTCGCACGTGTTGTG the “relative binding free energy” value was -0.06 kcal/mol. In the case of ATGGACACGTGGGTTA, the “relative binding free energy” value was -0.14 kcal/mol. In the case of GATAACACGTGTAGTA, the “relative binding free energy” value was 0.18 kcal/mol. With TGGTGCACGTGGGGTA the “relative binding free energy” value was -0.18 kcal/mol. For TTGTACACGTGGCGTC, the “relative binding free energy” value was -0.02 kcal/mol. For TGAGACACGTGAATGG, the “relative binding free energy” value was 0.33 kcal/mol. In the case of GAGGTCACGTGAAGTG, the “relative binding free energy” value was 0.28 kcal/mol. With ACGTGCACGTGGTTTT the “relative binding free energy” value was -0.07 kcal/mol. TTGGACACGTGCAGCG was tested, and the “relative binding free energy” value was 0.03 kcal/mol. TTTCGCACGTGCATTT was tested, and the “relative binding free energy” value was 0.03 kcal/mol. With ATTTTCACGTGTTGGT the “relative binding free energy” value was 0.32 kcal/mol. TGTGGCACGTGAGAAG was tested, and the “relative binding free energy” value was 0.18 kcal/mol. TTTAACACGTGTTAAG was tested, and the “relative binding free energy” value was 0.16 kcal/mol. With TTCTACACGTGGTTAT the “relative binding free energy” value was 0.03 kcal/mol. In the case of CGTATCACGTGGATGT, the “relative binding free energy” value was 0.06 kcal/mol. For TGCTGCACGTGCGGGA, the “relative binding free energy” value was -0.11 kcal/mol. For AGGTTCACGTGCTTGG, the “relative binding free energy” value was 0.2 kcal/mol. With GTATTCACGTGACAGG the “relative binding free energy” value was 0.33 kcal/mol. In the case of GCTTGCACGTGGCGGT, the “relative binding free energy” value was -0.05 kcal/mol. GATGACACGTGTTCGT was tested, and the “relative binding free energy” value was 0.14 kcal/mol. TGGGGCACGTGTATGT was tested, and the “relative binding free energy” value was -0.03 kcal/mol. With TATGTCACGTGTTTCG the “relative binding free energy” value was 0.1 kcal/mol. For TTTATCACGTGCAGTG, the “relative binding free energy” value was 0.16 kcal/mol. With AGTTGCACGTGACTTT the “relative binding free energy” value was 0.19 kcal/mol. With TTGTACACGTGGGTAG the “relative binding free energy” value was -0.03 kcal/mol. AGGGACACGTGTTGTC was tested, and the “relative binding free energy” value was 0.04 kcal/mol. In the case of ATGGCCACGTGAAGGG, the “relative binding free energy” value was 0.06 kcal/mol. In the case of AGAGACACGTGCGAGG, the “relative binding free energy” value was 0.11 kcal/mol. For ATTGTCACGTGTGGCT, the “relative binding free energy” value was 0.06 kcal/mol. With TGGGGCACGTGGCGGC the “relative binding free energy” value was -0.28 kcal/mol. With GTATGCACGTGAGTAA the “relative binding free energy” value was 0.18 kcal/mol. With TGGGTCACGTGCGTGT the “relative binding free energy” value was 0.07 kcal/mol. AGGGGCACGTGGAGTC was tested, and the “relative binding free energy” value was -0.17 kcal/mol. In the case of TGTGTCACGTGGTATA, the “relative binding free energy” value was -0.14 kcal/mol. With TGTAACACGTGTCGGG the “relative binding free energy” value was 0.09 kcal/mol. With AGTTGCACGTGGGAGA the “relative binding free energy” value was 0.04 kcal/mol. TGTTTCACGTGGCAAA was tested, and the “relative binding free energy” value was 0.36 kcal/mol. With GATGCCACGTGGGGTC the “relative binding free energy” value was -0.14 kcal/mol. GGAGGCACGTGGTATT was tested, and the “relative binding free energy” value was 0.03 kcal/mol. In the case of TATTGCACGTGGGATG, the “relative binding free energy” value was 0.01 kcal/mol. GGTGACACGTGCGTGG was tested, and the “relative binding free energy” value was 0 kcal/mol. In the case of TGAGGCACGTGTCAAT, the “relative binding free energy” value was 0 kcal/mol. AGGTGCACGTGGAAAA was tested, and the “relative binding free energy” value was 0.07 kcal/mol. AGTTCCACGTGCGTTG was tested, and the “relative binding free energy” value was 0.14 kcal/mol. In the case of ATTGTCACGTGCAGGC, the “relative binding free energy” value was 0.2 kcal/mol. TTTGGCACGTGTGGTG was tested, and the “relative binding free energy” value was 0.02 kcal/mol. For TTCGACACGTGGGGGC, the “relative binding free energy” value was -0.01 kcal/mol.
